Out of some 370,000 compounds screened, about 150 (0.041%) were called active. The inconclusive results got no clear call from the source; some entries with a clear call stand among them for comparison. Calls follow the shape of the dose curve; as a rule, active = well fitted inhibition curve with a large enough effect; inconclusive = small, poorly fitted or top-dose-only effect; inactive = flat fitted curve, though single readings scatter. No potency is given beside an inconclusive call; the fits are too rough.
What follows are compounds tested against Beta-lactamase (Escherichia coli (strain K12)) (UniProt P00811) (assay: qHTS Inhibitors of AmpC Beta-Lactamase (assay with detergent)). Conditions: AmpC hydrolysis of nitrocefin, absorbance 480 nm, 0.01% Triton; activity change, negative = inhibition: at 114 µM (top of the series).
How it was run: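 20 mM phosphate pH 7.0 + 0.01% (detergent screen) or 0.0001% Triton X-100; 5.3 nM AmpC reagent; cpd preinc 15 min RT; nitrocefin (800 uM stock) to start; A480 q20 s × 4 min; Activity was normalised to no-enzyme and no-compound control wells.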
Also: nearly all actives have a fitted effect of over 25% in size.
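For activity change, negative = inhibition in this document: 0% = no-compound wells and -100% = no-enzyme wells.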
Potency is read from the fitted curve at half-maximal effect; tags tell the direction and shape of the fitted curve.

Sequence of UniProt P00811 (P00811 whole entry, looked up): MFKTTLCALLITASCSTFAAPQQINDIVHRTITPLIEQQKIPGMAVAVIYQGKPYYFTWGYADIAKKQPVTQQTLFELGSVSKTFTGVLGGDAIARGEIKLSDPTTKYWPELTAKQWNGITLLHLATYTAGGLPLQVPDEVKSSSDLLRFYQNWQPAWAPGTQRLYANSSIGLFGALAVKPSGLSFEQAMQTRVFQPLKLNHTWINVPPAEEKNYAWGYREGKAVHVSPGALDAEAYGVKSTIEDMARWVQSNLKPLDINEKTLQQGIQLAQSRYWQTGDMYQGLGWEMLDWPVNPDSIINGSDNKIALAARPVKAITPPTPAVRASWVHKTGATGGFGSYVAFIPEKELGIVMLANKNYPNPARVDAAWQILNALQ

Row | SMILES | Potency | activity change, negative = inhibition
1 | O=C(c1cc(S(=O)(=O)N2CCOCC2)c(Cl)cc1Cl)N1CCCCC1 | inconclusive [inhibitor, full curve, poor fit] | 
2 | CC(NC(=O)Nc1cccc([N+](=O)[O-])c1)(C(F)(F)F)C(F)(F)F | inconclusive [inhibitor, full curve, poor fit] | 
3 | Cc1ccnc(N/C=C/C(=O)c2ccc(Br)cc2)c1 |  | inactive: -6.36%
4 | OC[C@@H](O)[C@H](O)C(/C=N/Nc1ccccc1)=N\Nc1ccccc1 |  | inactive: -8.05%
5 | COc1cccc(CNC(=O)c2ccc(OCC(=O)N3CCOCC3)c(OC)c2)c1 | inconclusive [inhibitor, single point] | 
6 | O=C(CN(c1ccc(F)cc1)S(=O)(=O)c1ccccc1)NCCSC1CCCCC1 | inconclusive [inhibitor, full curve] | 
7 | COc1ccc2[nH]c3c(NCCN(C(C)C)C(C)C)ncnc3c2c1 | inconclusive [inhibitor, full curve, poor fit] | 
8 | COc1ccc(S(=O)(=O)Nc2cc(C)cc(C)n2)c2ccccc12 | inconclusive [inhibitor, single point] | 
9 | COc1ccc(-c2cc(C(N)=O)nc(N3CCCCCC3)n2)cc1 | inconclusive [inhibitor, full curve, poor fit] | 
10 | COc1ccc(/C=C/C(=O)Nc2cccc(C(C)=O)c2)cc1 |  | inactive: -15.6%
11 | O=C(O)C1CCN(C(=O)COc2ccc3c(c2)oc(=O)c2ccccc23)CC1 | inconclusive [inhibitor, full curve] | 
12 | COc1ccc(N/C=C\C(=O)c2ccc(Br)cc2)cc1OC |  | inactive: -8.17%
13 | Cc1cccc(NCc2ccc(O)c3ncccc23)c1 |  | inactive: 4.94%
14 | O=C(CSc1nnc(NC(=O)c2ccc(F)cc2F)s1)NC1CCCC1 |  | inactive: -7.2%
15 | Cc1sc2ncnc(SCC(=O)c3ccc(O)cc3O)c2c1C | inconclusive [inhibitor, single point] | 
16 | CCOC(=O)Cn1c(=O)oc2cc(S(=O)(=O)N3CCn4c3nc3ccccc34)ccc21 |  | inactive: -10.6%
17 | O=C1NN(c2cccc(Br)c2)C(=O)/C1=C\c1ccc(O)cc1 |  | inactive: -0.764%
18 | CCOC(=O)c1ccc(NC(=O)c2cc(S(=O)(=O)N3CCOCC3)cn2C)cc1 | inconclusive [inhibitor, partial curve, poor fit] | 
19 | CCc1ccc2[nH]c(=O)c(C(c3nnnn3CCOC)N3CCN(c4ccc(F)cc4)CC3)cc2c1 (stereo not drawn) | inconclusive [inhibitor, full curve, poor fit] | 
20 | CCCCc1nnc(SCCSc2nnc(CCCC)n2N)n1N | inconclusive [inhibitor, full curve] | 
21 | O=C(c1noc2c1CCc1ccccc1-2)N1CCOCC1 | inconclusive [inhibitor, partial curve, poor fit] | 
22 | O=C1CC(N2CCN(c3ccccc3)CC2)C(=O)N1c1ccc(Cl)cc1 (stereo not drawn) | inconclusive [inhibitor, full curve, poor fit] | 
23 | CC(=O)c1cccc(Oc2cc(NN3CCCCC3)c([N+](=O)[O-])cc2[N+](=O)[O-])c1 |  | inactive: -13.9%

Row | SMILES | Potency | activity change, negative = inhibition
24 | CCOC(=O)Nc1nnc(-c2ccc(OC)c(OC)c2)s1 | inconclusive [inhibitor, full curve, poor fit] | 
25 | O=C(CCCc1ccccc1)NCCCN1CCOCC1 | inconclusive [inhibitor, full curve, poor fit] | 
26 | CCn1c(=O)c2cc(C(=O)NCCCN3CCN(C)CC3)sc2c2ccccc21 |  | inactive: -4.61%
27 | CCCCn1c(N)c(N(CC(C)C)C(=O)c2ccc(-n3c(C)ccc3C)cc2)c(=O)[nH]c1=O | inconclusive [inhibitor, single point] | 
28 | Cc1ccccc1NC(=O)c1c(C)oc2ccc(O)c(CN3CCOCC3)c12 |  | inactive: -2.13%
29 | CC1CCc2cc(F)ccc2N1C(=O)CN1C(=O)c2ccccc2C1=O (stereo not drawn) | inconclusive [inhibitor, full curve, poor fit] | 
30 | O=C(O)c1cc(-c2ccc(Cl)cc2)n(-c2ccccc2)n1 | inconclusive [inhibitor, partial curve, poor fit] | 
31 | CC(C)c1nc2ccc(Br)cn2c1NC1CCCC1 | inconclusive [inhibitor, single point] | 
32 | N#Cc1ccccc1NC(=O)C(=O)NCC1CCCN1S(=O)(=O)c1cccs1 (stereo not drawn) | inconclusive [inhibitor, full curve, poor fit] | 
33 | COC1CCN(C(=O)C2CCC(=O)N(CCc3cccc(F)c3)C2)CC1 (stereo not drawn) |  | inactive: -0.694%
34 | O=C(NNC(=O)c1ccccc1C(=O)O)c1ccc(O)cc1 |  | inactive: 1.98%
35 | O=C(Oc1ccccc1/C=C\C(=O)c1cc2ccccc2o1)c1ccccc1 |  | inactive: 0.354%
36 | C=CCn1c(SCC(=O)NCc2ccco2)nnc1C1CCCCC1 | inconclusive [inhibitor, full curve] | 
37 | CCCCCN=Cc1c(C)[nH]n(-c2nc3ccccc3s2)c1=O | inconclusive [inhibitor, partial curve] | 
38 | Cc1ccc(S(=O)(=O)Nc2nc(C)c(C)s2)cc1 | inconclusive [inhibitor, partial curve, poor fit] | 
39 | CC1CCCCC1NC(=O)c1cn(C)c2ccc(S(=O)(=O)N3CCCC3)cc2c1=O (stereo not drawn) |  | inactive: -10.6%
40 | CCCCOc1ccc(CSCCNC(=S)Nc2ccccc2)cc1 |  | inactive: -7.61%
41 | COc1ccc(-c2c(C)c3ccc(OCC(C)=O)cc3oc2=O)cc1 | inconclusive [inhibitor, full curve, poor fit] | 
42 | CN1CCN(NC(=O)c2ccc(Cl)c([N+](=O)[O-])c2)CC1 | inconclusive [inhibitor, full curve, poor fit] | 
43 | O=C(CCCn1c(SCC(=O)c2ccc(F)cc2)nc2ccccc2c1=O)NCc1ccccc1 | inconclusive [inhibitor, full curve] | 
44 | O=C(N/N=C/C=C/c1ccccc1[N+](=O)[O-])c1cccs1 |  | inactive: -1.98%
45 | COc1cccc(C(=O)N/N=c2\sc3ccccc3n2C)c1 | inconclusive [inhibitor, full curve, poor fit] | 
46 | N/C(=N\OC(=O)N1c2ccccc2Sc2ccccc21)c1ccccc1 | inconclusive [inhibitor, partial curve] | 

Row | SMILES | Potency | activity change, negative = inhibition
47 | O=C(CSc1ccccn1)N1CCN(C(=O)CSc2ccccn2)CC1 | inconclusive [inhibitor, full curve, poor fit] | 
48 | O=C(Nc1ccc(Br)cc1F)c1ccc2c(c1)N(Cc1ccccc1)C(=O)CS2=O (stereo not drawn) | inconclusive [inhibitor, full curve] | 
49 | CC(C)(C)c1nc2ccccc2c2nnc(SCC(=O)Nc3nc4ccccc4s3)n12 | inconclusive [inhibitor, partial curve, poor fit] | 
50 | CC(C)c1ccc(NC(=O)c2cc(S(=O)(=O)N(C)C3CCCCC3)ccc2F)cc1 |  | inactive: 10.4%
51 | C[C@@H](NC(=O)/C(C#N)=C/c1ccc(O)c(O)c1)c1ccccc1 | inconclusive [inhibitor, full curve, poor fit] | 
52 | O=C(C1=C(O)C(=O)N(Cc2ccco2)C1c1cccc(O)c1)c1ccco1 (stereo not drawn) | inconclusive [inhibitor, single point] | 
53 | CCSc1nnc(C)c2ccccc12 | inconclusive [inhibitor, full curve, poor fit] | 
54 | CC(=Nc1ccc2c(c1)CCC2)c1c(O)n(C)c(=O)n(C)c1=O | inconclusive [inhibitor, full curve] | 
55 | CC1CC1C(=O)Nc1cc(S(=O)(=O)N2CCOCC2)ccc1N1CCCC1 (stereo not drawn) | inconclusive [inhibitor, full curve, poor fit] | 
56 | COc1ccc(N(CC(=O)Nc2cc(C)on2)S(=O)(=O)c2ccc(Cl)cc2)cc1 | inconclusive [inhibitor, full curve, poor fit] | 
57 | CS(=O)(=O)c1sc2nc(-c3cccs3)cc(-c3ccccc3)c2c1N | inconclusive [inhibitor, full curve] | 
58 | Cc1cc(C)nc(-n2nc(C)c3c2N(Cc2ccccc2)C(=O)CC3c2ccc(Cl)cc2)n1 (stereo not drawn) |  | inactive: 3.54%
59 | Cc1nc(NC(C)C)c2cnn(CCc3ccccc3)c2n1 | inconclusive [inhibitor, full curve, poor fit] | 
60 | CCOC(=O)Cc1c(C)nc2cc(C)nn2c1C |  | inactive: -6.34%
61 | CCCC(C)n1[nH]c(=O)cc1N (stereo not drawn) | inconclusive [inhibitor, single point] | 
62 | CCOc1ccc(NC(=O)CCN2CCN(c3ccccc3OC)CC2)cc1 | inconclusive [inhibitor, full curve, poor fit] | 
63 | O=C(CCl)Nc1ccccc1C(=O)NCc1ccccc1 | inconclusive [inhibitor, full curve, poor fit] | 
64 | O=C(NCCCn1ccnc1)c1cccc(S(=O)(=O)N2CCCCCC2)c1 | inconclusive [inhibitor, full curve, poor fit] | 
65 | O=C(CSc1nc2ccccc2[nH]1)Nc1cc(C(F)(F)F)ccc1N1CCOCC1 | inconclusive [inhibitor, single point] | 
66 | CCOC(=O)C1CCN(C(=O)Cc2ccc(C)cc2)CC1 | inconclusive [inhibitor, partial curve, poor fit] | 
67 | Cc1c(NC(=O)c2ccc(=O)oc2)c(=O)n(-c2ccccc2)n1C | inconclusive [inhibitor, full curve, poor fit] | 
68 | Cc1noc(C)c1C(=O)Nc1ccc(Cl)cc1C(F)(F)F |  | inactive: -9.61%
